Laboratory results taken from PubChem BioAssay AID720709 (National Center for Advancing Translational Sciences (NCATS), 2013).
Out of some 360,000 compounds screened, about 520 (0.14%) were called active. The shares of active, inactive and inconclusive entries below differ from those in the screen. Calls come from the whole dose curve; as a rule, active = well fitted inhibition curve with a large enough effect; inconclusive = small, poorly fitted or top-dose-only effect; inactive = no such curve, though single readings can be large or run the other way. No potency is given beside an inconclusive call; the fits are too rough.

target: Rap guanine nucleotide exchange factor 3 (Homo sapiens) (UniProt O95398); assay: qHTS for Antagonist of cAMP-regulated guanine nucleotide exchange factor 3 (EPAC1): primary screen; settings: EPAC1 GEF assay, Rap1b-BODIPY-GDP exchange fluorescence; series mostly up to 115 µM; note: nearly all actives have a fitted effect of over 50% in size
Potency is the fitted concentration of half-maximal effect; tags give direction and shape of the fitted curve.

UniProt O95398, sequence (O95398 whole entry, looked up): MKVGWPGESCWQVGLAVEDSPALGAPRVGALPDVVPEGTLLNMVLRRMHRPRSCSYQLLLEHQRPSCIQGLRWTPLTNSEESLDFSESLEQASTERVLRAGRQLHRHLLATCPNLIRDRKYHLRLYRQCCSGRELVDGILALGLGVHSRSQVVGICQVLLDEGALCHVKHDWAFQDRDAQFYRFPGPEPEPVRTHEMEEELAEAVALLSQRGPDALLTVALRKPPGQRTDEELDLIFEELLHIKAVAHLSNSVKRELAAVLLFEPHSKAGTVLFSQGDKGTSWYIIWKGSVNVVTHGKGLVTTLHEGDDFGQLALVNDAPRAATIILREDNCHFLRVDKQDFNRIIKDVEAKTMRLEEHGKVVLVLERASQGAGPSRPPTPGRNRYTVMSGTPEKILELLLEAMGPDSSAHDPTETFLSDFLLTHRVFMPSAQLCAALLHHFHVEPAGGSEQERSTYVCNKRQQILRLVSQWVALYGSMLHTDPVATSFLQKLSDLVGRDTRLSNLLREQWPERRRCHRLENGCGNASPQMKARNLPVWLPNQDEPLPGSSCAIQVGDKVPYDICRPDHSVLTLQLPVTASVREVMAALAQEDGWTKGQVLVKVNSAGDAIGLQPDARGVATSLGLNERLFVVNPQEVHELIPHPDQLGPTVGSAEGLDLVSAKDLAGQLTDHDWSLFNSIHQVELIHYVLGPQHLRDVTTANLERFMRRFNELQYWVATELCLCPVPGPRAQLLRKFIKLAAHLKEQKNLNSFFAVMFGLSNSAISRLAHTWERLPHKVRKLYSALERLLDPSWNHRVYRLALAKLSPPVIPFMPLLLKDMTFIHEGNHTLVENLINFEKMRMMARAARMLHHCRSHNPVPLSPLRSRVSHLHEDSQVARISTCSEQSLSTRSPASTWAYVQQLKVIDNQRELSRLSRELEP

Q: For Cn1cccc1C(=O)NC(=O)COC(=O)c1ccc(S(C)(=O)=O)c([N+](=O)[O-])c1, which Potency is on record?
A: inconclusive [inhibitor, partial curve]

Q: For Cc1cc(C(=O)CCl)c(C)n1CCc1ccccc1, which Potency is on record?
A: inconclusive [inhibitor, partial curve]

Q: Which Potency does the source give for Cc1cc(C(=O)COC(=O)C2COc3ccccc3O2)c(C)n1CC1CCCO1 (configuration not stated) here?
A: inconclusive [inhibitor, single point]

Q: For O=C(Nc1cccc(C(=O)N2CCOCC2)c1)C1CCCCC1, which Potency is on record?
A: inactive

Q: COCCN(C(=O)CCC(=O)Nc1ccccn1)C(C(=O)NC(C)C)c1ccc(Cl)cc1 (configuration not stated) was tested. Which Potency did it give?
A: inactive

Q: COc1cccc(N2CCN(S(=O)(=O)c3ccc4c(c3)N(C(C)=O)CCO4)CC2)c1 was tested. Which Potency did it give?
A: inconclusive [inhibitor, full curve, poor fit]

Q: Which Potency does the source give for CC(=O)c1cccc(NC(=S)NCCc2ccc(Cl)cc2)c1 here?
A: inconclusive [inhibitor, partial curve, poor fit]

Q: How did the Potency turn out when O=C(Nc1ccc(S(=O)(=O)NCc2ccccc2)cc1)C1CCCCC1 was run?
A: inactive

Q: CC(=O)N(C)c1ccc(NC(=O)c2ccco2)cc1 was tested. Which Potency did it give?
A: inactive

Q: Cc1ccnc(SCC(N)=O)n1 was tested. Which Potency did it give?
A: inconclusive [inhibitor, full curve, poor fit]

Q: With Cc1ccc(-n2nnc3c(=O)n(CC(=O)OCc4ccccc4)cnc32)cc1 as the compound, how does the Potency read?
A: inconclusive [inhibitor, single point]

Q: With Cc1ccc(C(=O)O)cc1NC(=S)NC(=O)c1ccc(-c2ccc(Cl)cc2)o1 as the compound, how does the Potency read?
A: inactive

Q: Which Potency does the source give for O=c1c2cc(Cl)ccc2[nH]c(=S)n1Cc1ccccn1 here?
A: inconclusive [inhibitor, single point]

Q: For CC1=NN(c2ccccc2)C(=O)/C1=C\c1ccc(Oc2ccc([N+](=O)[O-])cc2[N+](=O)[O-])cc1, which Potency is on record?
A: active: 79.4 µM

Q: How did the Potency turn out when COc1ccc(/C=C/C(=O)OCC(=O)Nc2ccc(Cl)c(S(=O)(=O)N(C)C)c2)cc1OC was run?
A: inconclusive [inhibitor, partial curve]

Q: How did the Potency turn out when COc1ccc(C(=O)CSc2nnc3ccc(-c4ccccn4)nn23)cc1 was run?
A: inconclusive [inhibitor, full curve]

Q: For CCOc1ccccc1N1CCN(C(=O)c2ccc3[nH]c4c(c3c2)CCCC4)CC1, which Potency is on record?
A: inconclusive [inhibitor, full curve]

Q: With CCc1ccc(NS(=O)(=O)c2cc3[nH]c(=O)c(=O)[nH]c3cc2C)cc1 as the compound, how does the Potency read?
A: inconclusive [inhibitor, single point]

Q: With OC(c1ccc2ccccc2c1)c1ncc(-c2ccc(C(F)(F)F)cc2)[nH]1 (configuration not stated) as the compound, how does the Potency read?
A: inconclusive [inhibitor, partial curve]

Q: For CCOCCCNC(=O)c1ccc2c(c1)N(Cc1ccccc1)C(=O)CS2=O (configuration not stated), which Potency is on record?
A: inconclusive [inhibitor, single point]

Q: For O=C(Cc1ccc(Br)cc1)Nc1ccc(S(=O)(=O)NCC2CCCO2)cc1 (configuration not stated), which Potency is on record?
A: inconclusive [inhibitor, full curve, poor fit]

Q: With COc1ccc(C(C)(O)c2nc(-c3ccccc3C)cs2)cc1 (configuration not stated) as the compound, how does the Potency read?
A: inconclusive [inhibitor, partial curve]

Q: CC(=O)[C@H]1[C@@H]2C(=O)N(c3cccc(Cl)c3)C(=O)[C@@H]2[C@H]2c3ccccc3C=CN21 was tested. Which Potency did it give?
A: inactive

Q: Which Potency does the source give for CCn1c(SCC(=O)Nc2nc(-c3ccc(C)cc3)cs2)nnc1-c1ccccc1O here?
A: inconclusive [inhibitor, partial curve]

Q: Which Potency does the source give for O=C(O)c1cccc(Cl)n1 here?
A: inactive

Q: CC(=O)c1ccc(N2CCN(C(=O)C3CCCN(S(=O)(=O)c4c(C)[nH]c(=O)[nH]c4=O)C3)CC2)cc1 (configuration not stated) was tested. Which Potency did it give?
A: inconclusive [inhibitor, single point]

Q: Which Potency does the source give for Cc1cc(C)c(NS(=O)(=O)c2ccc3c(c2)NC(=O)CC(=O)N3)c(C)c1 here?
A: inconclusive [inhibitor, single point]

Q: How did the Potency turn out when CC(=O)C1=C(c2ccccc2)NC(=S)NC1c1ccc(O)c(O)c1 (configuration not stated) was run?
A: inconclusive [inhibitor, partial curve]

Q: Which Potency does the source give for CC(=O)Nc1ccc(C(=O)OCc2ccccc2Br)cc1 here?
A: inconclusive [inhibitor, full curve, poor fit]

Q: For Cc1cccc(/C=C/C(=O)c2ccc([N+](=O)[O-])o2)c1, which Potency is on record?
A: inactive

Q: COc1cccc(-c2csc3nnc(SCC(=O)c4ccc(NC(C)=O)cc4)n23)c1 was tested. Which Potency did it give?
A: inconclusive [inhibitor, partial curve]

Q: O=C(O)c1ccc(Nc2ncnc3ccccc23)cc1 was tested. Which Potency did it give?
A: inconclusive [inhibitor, single point]

Q: CCOc1ccc(-c2c(C(=O)N/N=C/c3ccc(OC)cc3)nnn2-c2nonc2N)cc1 was tested. Which Potency did it give?
A: inconclusive [inhibitor, single point]

Q: Which Potency does the source give for O=C1c2ccccc2C(=O)C1(CO)c1ccc(OC(F)F)cc1 here?
A: inconclusive [inhibitor, full curve, poor fit]

Q: How did the Potency turn out when O=C(O)c1cccc(NC(=S)N/N=C/c2ccccc2OCc2cccc(Br)c2)c1 was run?
A: inconclusive [inhibitor, single point]

Q: With COCCn1c(N)c(C(=O)NCC2CCCO2)c2nc3ccccc3nc21 (configuration not stated) as the compound, how does the Potency read?
A: inconclusive [inhibitor, partial curve]

Q: How did the Potency turn out when NC(=O)C1CCN(CCCNC2CC(=O)N(Cc3ccc(N4CCCC4=O)cc3)C2=O)CC1 (configuration not stated) was run?
A: inconclusive [inhibitor, single point]

Q: CCOC(=O)CSc1nc2sc3c(c2c(=O)n1-c1ccccc1)CCN(C(C)C)C3 was tested. Which Potency did it give?
A: inactive

Q: With Cc1ccc2c(CN(Cc3ccccc3)Cc3ccccc3)cc(=O)oc2c1 as the compound, how does the Potency read?
A: inactive

Q: For Cc1ccccc1Nc1nc(N)nc(CSc2nc3ccccc3c(=O)n2C)n1, which Potency is on record?
A: inconclusive [inhibitor, single point]

Q: How did the Potency turn out when CCCCNC(=O)C1c2cc(OC)c(OC)cc2C(=O)N(C)C1c1cccs1 (configuration not stated) was run?
A: inconclusive [inhibitor, partial curve, poor fit]

Q: How did the Potency turn out when Cc1cccc(NC(=O)CC2C(=O)NCCN2C(=S)Nc2ccccc2)c1 (configuration not stated) was run?
A: inconclusive [inhibitor, partial curve]
